# Data: publication PMC4336329 (PLoS ONE, 2015)
# Out of some 310,000 compounds screened, about 14,000 (4.5%) showed an effect of 50% or more. Effects have a minus sign here. The list shows a part of the results.
# Molecular target: human ether-à-go-go-related gene (hERG) potassium channel (human, UniProt Q12809)
# Experiment: primary screen, population patch clamp on CHO cells stably expressing hERG
# 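Further: peak tail current of the secondary pulse compared with the same well before compound.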
# human ether-à-go-go-related gene (hERG) potassium channel, sequence (Q12809 whole entry, looked up): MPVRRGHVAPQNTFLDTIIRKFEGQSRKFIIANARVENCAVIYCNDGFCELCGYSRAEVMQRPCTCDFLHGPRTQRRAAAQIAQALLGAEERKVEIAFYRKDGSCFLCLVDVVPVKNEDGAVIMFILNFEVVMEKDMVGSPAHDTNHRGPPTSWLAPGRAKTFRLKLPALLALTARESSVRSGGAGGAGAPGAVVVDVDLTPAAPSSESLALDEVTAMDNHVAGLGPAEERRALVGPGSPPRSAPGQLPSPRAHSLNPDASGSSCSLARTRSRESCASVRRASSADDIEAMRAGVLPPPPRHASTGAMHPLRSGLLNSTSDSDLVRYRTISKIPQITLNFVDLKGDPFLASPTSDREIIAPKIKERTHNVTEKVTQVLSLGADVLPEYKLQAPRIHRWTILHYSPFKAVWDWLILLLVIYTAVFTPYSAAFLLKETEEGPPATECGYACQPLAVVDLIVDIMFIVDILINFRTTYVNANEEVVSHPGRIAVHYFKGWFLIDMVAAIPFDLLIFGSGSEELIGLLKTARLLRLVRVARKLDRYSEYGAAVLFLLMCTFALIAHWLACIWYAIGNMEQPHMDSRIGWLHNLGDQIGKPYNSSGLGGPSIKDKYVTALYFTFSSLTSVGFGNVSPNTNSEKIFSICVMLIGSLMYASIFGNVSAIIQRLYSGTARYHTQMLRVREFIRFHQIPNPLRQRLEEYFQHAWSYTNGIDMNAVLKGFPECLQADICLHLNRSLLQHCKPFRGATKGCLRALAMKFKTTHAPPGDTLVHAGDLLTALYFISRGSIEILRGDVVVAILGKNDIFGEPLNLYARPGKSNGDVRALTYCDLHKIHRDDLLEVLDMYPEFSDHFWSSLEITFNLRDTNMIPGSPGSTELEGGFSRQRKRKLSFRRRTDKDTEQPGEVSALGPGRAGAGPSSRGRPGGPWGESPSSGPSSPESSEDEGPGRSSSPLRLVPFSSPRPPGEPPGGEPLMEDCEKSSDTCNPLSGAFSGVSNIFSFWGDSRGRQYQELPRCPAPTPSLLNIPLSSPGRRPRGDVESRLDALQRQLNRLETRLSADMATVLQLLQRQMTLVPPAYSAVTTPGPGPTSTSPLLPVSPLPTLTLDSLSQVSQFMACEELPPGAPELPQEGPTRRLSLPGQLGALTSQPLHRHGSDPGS
row,Structure (SMILES),"hERG current change (%, negative = inhibition) at 10uM [%]"
1,COc1ccc(CCNC(=O)CSc2nc3[nH]ncc3c(=O)n2-c2ccccc2OC)cc1OC,58.3
2,O=C(COC(=O)Cc1c[nH]c2ccccc12)NC1CCCCC1,16.7
3,C/C(=N\NC(=O)c1nnn(-c2nonc2N)c1CN1CCOCC1)c1ccc(CC(C)C)cc1,6.15
4,CC/C(=N\NC(=O)c1ccc(CN(C)S(=O)(=O)c2ccc(C)cc2)cc1)c1ccc(OC(F)F)cc1,-26.5
5,CCOc1cc(C(=O)NCCC(=O)N2CCC3(CC2)NCCc2[nH]cnc23)cc(OCC)c1OCC,27
6,Cc1nn(-c2ccccc2)c(C)c1C(=O)OCC(=O)NC(=O)NC1CCCC1,-15.8
7,CCN(CC)c1ccc(C(=O)OCC(=O)Nc2sccc2C#N)cc1,12.2
8,Cc1cccc(N2CCN(C(=O)C(Cc3ccccc3)NC(N)=O)CC2)c1C (stereo not drawn),0.0525
9,Cc1cc(=O)[nH]c(SCC(=O)NC(C)C2CC3CCC2C3)c1C#N (stereo not drawn),8.14
10,COc1ccc(-c2nn(-c3ccccc3)cc2/C=N/NC(=S)NC(C)C)cc1OC,0.00898
11,COc1cc2[nH]c(=S)n(C3CC3)c(=O)c2cc1OC,24.8
12,O=C(Nc1nnc(-c2ccc(Cl)cc2)o1)c1nc2ccccc2s1,6.88
13,O=[N+]([O-])c1ccc(OCc2n[nH]c(=S)n2-c2ccccc2)cc1,-8.54
14,NC(=O)c1ccc(NC(=O)COC(=O)c2ccc3c(c2)OCO3)cc1,-1.17
15,O=C(COC(=O)CNC(=O)C1CCCCC1)Nc1ccc(Br)cc1Br,-10.4
16,Cc1ccc(OCCSc2nnc(C)c(=O)n2N)cc1,4.24
17,CC(=O)N1C(=O)c2cccc3cccc(c23)C(=O)N1C(C)=O,3.49
18,CCOC(=O)c1c(N)nn(C(C)=O)c1-c1ccccc1,5.32
19,Cn1cnc2c1c(=O)n(Cc1ccccc1)c(=O)n2C,-2.12
20,CCOc1ccc(CCNC(=O)c2cc(-c3ccccc3)c(N3CCOCC3)s2)cc1OCC,8.52
21,Cc1ccc(-c2cc(-c3ccc(F)cc3)n[nH]2)c(O)c1,8.43

row,Structure (SMILES),"hERG current change (%, negative = inhibition) at 10uM [%]"
1,Cc1ccc(S(=O)(=O)N(C)C)cc1NC(=O)C(C)OC(=O)c1ccc2ccccc2n1 (stereo not drawn),-26.8
2,O=C(c1ccc(C(F)(F)F)n(Cc2ccc(Cl)cc2)c1=O)N1CCOCC1,-49.5
3,O=C(Cn1ncc2c1-c1ccccc1OC2)Nc1cccc(Cl)c1,3.76
4,Fc1ccccc1/C=C1\CCCC2=C1NC(=S)NC2c1ccccc1F (stereo not drawn),5.88
5,COc1ccccc1NC(=O)CN1C(=O)NC(C)(C)C1=O,16.8
6,O=C(O[C@H]1[C@H](Oc2ccccc2COC(=O)C2(O)C=CCCC2=O)O[C@H](CO)[C@@H](O)[C@@H]1O)c1ccccc1 (stereo partly drawn),24.8
7,Cc1ccccc1NC(=O)C1CC(=O)N(c2ccccc2F)C1 (stereo not drawn),-16
8,COc1cc(OC)c(-c2nc3ccccc3s2)cc1OC,-4.74
9,Cc1cccc(C(=O)OCC(=O)N(C)C(c2ccccc2)c2ccccc2)c1[N+](=O)[O-],-5.25
10,COc1ccc(CC(=O)OCC(=O)Nc2c(C)n(C)n(-c3ccccc3)c2=O)cc1OC,-7.56
11,CCOC(=O)N1CCN(Cc2nc3cc(NC(=O)C(C)C)ccc3n2C)CC1,12.3
12,CCc1nn(CC(=O)N2CCN(c3cc(C)ccc3C)CC2)c(=O)c2cc3occc3n12,13
13,CCOc1ccc2cc(C3CC(c4ccco4)=NN3S(C)(=O)=O)c(=O)[nH]c2c1 (stereo not drawn),1.94
14,COc1cc(CNCc2ccc(C)cc2)cc(OC)c1OC.O=C(O)C(=O)O,-3.47
15,CC(=O)O[C@H]1CC(=O)OC(C)(C)C2CC(=O)[C@]3(C)C(CC[C@@](C)([C@@H](O[C@@H]4O[C@H](CO)[C@@H](O)[C@H](O)[C@H]4O)c4ccoc4)[C@@]34O[C@@H]4C(=O)O)[C@]21C (stereo partly drawn),-7.03
16,CC(=O)N(CN1C(=O)C2CC=CCC2C1=O)c1cccc(Cl)c1 (stereo not drawn),-5.31
17,CCOc1ccc(S(=O)(=O)N2CCC(C(=O)Nc3cc(S(C)(=O)=O)ccc3Cl)CC2)cc1,-28.5
18,CN(CC(=O)Nc1ccc(Cl)cc1)C(=O)COc1ncnc2ccccc12,-8.52
19,COc1ccc(NS(=O)(=O)c2ccc(-c3cnc(C4CC4)o3)cc2)cc1OC,14.6
20,N#Cc1c(NC(=O)CCCl)sc2c1CCCCC2,2.76
21,Clc1ccc(-c2cc(COc3ccc4ccccc4c3)no2)cc1,16

row,Structure (SMILES),"hERG current change (%, negative = inhibition) at 10uM [%]"
1,CC(=O)Nc1ccc(S(=O)(=O)NCc2nc(-c3ccccc3Cl)no2)cc1,13.1
2,C=CCN1CCN(C(=O)c2oc3ccccc3c2C)CC1,-0.434
3,Cc1ccc(OCC(=O)N(Cc2ccco2)c2c(N)n(Cc3ccccc3)c(=O)[nH]c2=O)cc1C,6.85
4,CC(NC(=O)c1cc2c(cc1Cl)N1CCCCCC1=NS2(=O)=O)c1ccc(S(N)(=O)=O)cc1 (stereo not drawn),10.9
5,CCCCn1c(O)c(C(CC)=NCCN2CCCCC2)c(=O)[nH]c1=O,-53.6
6,CCOc1ccccc1C(=O)NCc1ccco1,-3.25
7,CNC(=O)c1c(NC(=O)c2ccc(S(=O)(=O)N3CCCc4ccccc43)cc2)sc2c1CCN(C)C2,4.53
8,O=C(NCc1ccccn1)c1coc(=O)c(Br)c1,14.3
9,CC1CCN(S(=O)(=O)c2cccc(C(=O)N(Cc3ccccc3)c3ccccn3)c2)CC1,-17.4
10,COc1ccc2c(c1)sc(=N)n2C,-22.4
11,Cc1ccc(Cl)c(OCC(=O)NN2CCN(C)CC2)c1,-9.03
12,CC(C)CCn1c(=O)c(C(=O)NCc2ccc3c(c2)OCO3)c(O)c2ccccc21,17.4
13,Cc1ccc(C)n1NC(=O)c1ccc(Cl)cc1Cl,-3.53
14,O=C(COC(=O)c1cc(=O)[nH]c2ccccc12)NC(=O)c1ccccc1,4.64
15,COc1cc2c(cc1OC)C1(CCCC1)CNC2c1ccc([N+](=O)[O-])cc1.Cl (stereo not drawn),-50
16,CCc1cccc(C)c1NC(=O)C1C2CCC(O2)C1C(=O)O (stereo not drawn),18.8
17,COC(=O)c1ccc(C(=O)OC)c(NC(=O)COC(=O)C2CCC(C(C)(C)C)CC2)c1 (stereo not drawn),6.23
18,COc1cccc(/C=N/NC(=O)c2oc3nc(-c4ccccc4)cc(-c4ccco4)c3c2N)c1,3.07
19,CN1CCN(c2ccc(Cl)cc2NC(=O)c2cccc(S(=O)(=O)N(C)C)c2)CC1,-36.9
20,COC(=O)C(N)Cc1ccc(O)cc1.Cl (stereo not drawn),15.9
21,N#C/C(=C\c1ccc(F)c(Cl)c1)S(=O)(=O)c1ccccn1,-6.64

row,Structure (SMILES),"hERG current change (%, negative = inhibition) at 10uM [%]"
1,N#Cc1cnn2c(C(F)(F)F)cc(-c3ccccc3)nc12,15.6
2,CCOC(=O)CSc1nnc(Cn2c(=O)sc3ccccc32)n1-c1ccccc1C,-7.64
3,CC(C)NC(=O)c1onc(CSc2cccc(Cl)c2)c1C(=O)O,3.74
4,Nc1nc2ccccc2n1/N=C/c1ccc(-c2ccccc2)o1,-11.8
5,CC(=O)c1cccc(NC(=O)c2ccccc2N(Cc2ccccc2)S(C)(=O)=O)c1,13.5
6,CC(C)c1ccc(S(=O)(=O)N2CCN(CC(O)CN3CCOCC3)CC2)cc1 (stereo not drawn),-22.8
7,CC(C)CCNc1ncnc2c1nnn2Cc1ccccc1Cl,-2.06
8,CN(C)c1ccnc(C(=O)O)c1,29.1
9,Cc1cc(NC(=O)c2noc3c2CCc2ccccc2-3)no1,11
10,O=C(O)CCC(=O)Nc1ccc(Cc2ccc(NC(=O)CCC(=O)O)c(O)c2)cc1O,-0.248
11,Cc1ccc(S(=O)(=O)O)cc1.NC1CCN(c2nc3c(cc2F)c(=O)c(C(=O)O)cn3-c2ccc(F)cc2F)C1 (stereo not drawn),18.5
12,CCOC(=O)N1CCN(C(=O)c2cc(-c3ccc(F)cc3)[nH]c2C)CC1,-72.3
13,CN(CCCNC(=O)CCc1cn(C)c2ccccc12)C1CCCCC1,-14.3
14,COC(=O)c1ccc(NC(=O)CN2CCC(NC(=O)c3ccco3)CC2)cc1,-14.8
15,COc1ccc(OC)c(CN2CCN(C(=O)c3cccc(S(=O)(=O)Nc4ccc(C)cc4)c3)CC2)c1,-34.6
16,COc1cc(NC(=O)c2cccc(C)c2)c(Cl)cc1[N+](=O)[O-],8.78
17,CCCCN(CC)CCCNC(=O)CS(=O)(=O)Cc1nc(-c2cccc(OC)c2)oc1C,-28.4
18,Cl.O=C(/C=C/c1cccc(F)c1)NCCCn1ccnc1,-22.6
19,Cn1cnnc1SCC(=O)NC1CCCC1,13
20,Cc1cc(-c2n[nH]c(=S)n2Cc2ccccc2)cs1,-0.571
21,COC(=O)C(NC(=O)c1ccccc1)(Nc1nccs1)C(F)(F)F (stereo not drawn),7.77
